Laboratory results published in patent publication US20220211805A1 (ACCELERON PHARMA, published 2022).
Like-named read-outs stand apart in the source and are kept apart here.

B1: hTβRII-hFc (Fc fusion)
chain: GATIPPHVQKSDVEMEAQKDEIICPSCNRTAHPLRHINNDMIVTDNNGAVKFPQLCKFCDVRFSTCDNQKSCMSNCSITSICEKPQEVCVAVWRKNDENITLETVCHDPKLPYHDFILEDAASPKCIMKEKKKPGETFFMCSCSSDECNDNIIFSEEYNTSNPDTG[human IgG1 Fc and a few adjoining residues not listed]
B2: hTβRII (G4S)5-hFc (Fc fusion)
chain: GATIPPHVQKSDVEMEAQKDEIICPSCNRTAHPLRHINNDMIVTDNNGAVKFPQLCKFCDVRFSTCDNQKSCMSNCSITSICEKPQEVCVAVWRKNDENITLETVCHDPKLPYHDFILEDAASPKCIMKEKKKPGETFFMCSCSSDECNDNIIFSEEYNTSNPDTGGGGSGGGGSGGGGSGGGGSGGG[human IgG1 Fc and a few adjoining residues not listed]
B3: hTβRII (G4S)6-hFc (Fc fusion)
chain: GATIPPHVQKSDVEMEAQKDEIICPSCNRTAHPLRHINNDMIVTDNNGAVKFPQLCKFCDVRFSTCDNQKSCMSNCSITSICEKPQEVCVAVWRKNDENITLETVCHDPKLPYHDFILEDAASPKCIMKEKKKPGETFFMCSCSSDECNDNIIFSEEYNTSNPDTGGGGSGGGGSGGGGSGGGGSGGGGSGGG[human IgG1 Fc and a few adjoining residues not listed]
B4: hTβRII (G4S)2-hFc (Fc fusion)
chain: GATIPPHVQKSDVEMEAQKDEIICPSCNRTAHPLRHINNDMIVTDNNGAVKFPQLCKFCDVRFSTCDNQKSCMSNCSITSICEKPQEVCVAVWRKNDENITLETVCHDPKLPYHDFILEDAASPKCIMKEKKKPGETFFMCSCSSDECNDNIIFSEEYNTSNPDTGGGGSGGG[human IgG1 Fc and a few adjoining residues not listed]
B5: hTβRII (G4S)3-hFc (Fc fusion)
chain: GATIPPHVQKSDVEMEAQKDEIICPSCNRTAHPLRHINNDMIVTDNNGAVKFPQLCKFCDVRFSTCDNQKSCMSNCSITSICEKPQEVCVAVWRKNDENITLETVCHDPKLPYHDFILEDAASPKCIMKEKKKPGETFFMCSCSSDECNDNIIFSEEYNTSNPDTGGGGSGGGGSGGG[human IgG1 Fc and a few adjoining residues not listed]
B6: hTβRII (G4S)4-hFc (Fc fusion)
chain: GATIPPHVQKSDVEMEAQKDEIICPSCNRTAHPLRHINNDMIVTDNNGAVKFPQLCKFCDVRFSTCDNQKSCMSNCSITSICEKPQEVCVAVWRKNDENITLETVCHDPKLPYHDFILEDAASPKCIMKEKKKPGETFFMCSCSSDECNDNIIFSEEYNTSNPDTGGGGSGGGGSGGGGSGGG[human IgG1 Fc and a few adjoining residues not listed]
B7: hTβRII extended hinge-hFc (Fc fusion)
chain: GATIPPHVQKSDVEMEAQKDEIICPSCNRTAHPLRHINNDMIVTDNNGAVKFPQLCKFCDVRFSTCDNQKSCMSNCSITSICEKPQEVCVAVWRKNDENITLETVCHDPKLPYHDFILEDAASPKCIMKEKKKPGETFFMCSCSSDECNDNIIFSEEYNTSNPDTGGG[human IgG1 Fc not listed]

Key:
human TGFβ1 [1] = biological target: T1, human TGFβ1 (human, UniProt P01137 in part); assay: cell-based or functional assay
human TGFβ1 [2] = biological target: T1, human TGFβ1; assay: cell-based or functional assay; remark: listed apart in the source
T1 sequence (P01137 279-390 limits assumed): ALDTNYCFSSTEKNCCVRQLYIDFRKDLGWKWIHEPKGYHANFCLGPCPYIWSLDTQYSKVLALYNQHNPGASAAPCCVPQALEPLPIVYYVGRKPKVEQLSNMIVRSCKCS

| Binder | IC50, inhibition of TGFβ1 in the A549 pGL3(CAGA)12 luciferase reporter gene assay (human TGFβ1 [1]) | IC50, inhibition of TGFβ1 in the A549 pGL3(CAGA)12 luciferase reporter gene assay (human TGFβ1 [2]) |
| --- | --- | --- |
| B1 | 7.69 nM |  |
| B2 |  | 30 pM |
| B3 |  | 20 pM |
| B4 | 1.12 nM |  |
| B5 | 0.22 nM |  |
| B6 | 70 pM |  |
| B7 | 5.67 nM |  |
